Assay results: paper PMC12040169 (PLOS Biology, 2025)
The other results are listed elsewhere or left out.

What follows are molecules tested on T1, C. trachomatis L2/434/Bu expressing GFP (CTL2-GFP). Settings: total inclusion area; 28.5 h, 10 µM; inhibitor.
T1 construct: L2/434/Bu GFP intracellular growth in HeLa cells
Design: species or system HeLa; C. trachomatis total inclusion area by high-content imaging, normalised to DMSO
Procedure, shortened: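 Following bulk GFP and resorufin fluorescence reads, infected cells were fixed, Hoechst-stained and imaged on a high-content platform. Inclusion total area and number per well served as growth proxies; nuclei counts indicated host viability. MICs were derived as for the fluorescence assay.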

| Compound | % of control remaining |
| --- | --- |
| O=C(Nc1ccc2[nH]ncc2c1)c1ccccc1Cl [CBK000191] | 102.536 |
| Cc1n[nH]c(C)c1CCC(=O)N/N=C\c1ccc(Cl)c(Cl)c1 [CBK263395] | 108.845 |
| Cc1ccc(NCC2CCN(CC(=O)Nc3cc(C)on3)C2)nc1 (stereo not drawn) [CBK306337] | 77.0844 |
| O=S(=O)(c1ccc(OC(F)(F)F)cc1)N1CCN(Cc2ccc3c(c2)OCO3)CC1 [CBK200040] | 98.513 |
| Cn1cc(CN(Cc2ccccc2)CC2CCCO2)cn1 (stereo not drawn) [CBK283233] | 110.015 |
| Cc1cc(F)c(S(=O)(=O)N2CCN(C)CC2)cc1NC(=O)c1cc2ccccc2o1 [CBK034419C] | 86.1167 |
| Cc1cc2nc(C3CCCN3C(=O)CN3CCCCC3)[nH]c2cc1C (stereo not drawn) [CBK282944] | 107.327 |
| O=C(Nc1ccccc1Cl)N1CCCCC1CO (stereo not drawn) [CBK156180] | 100.625 |
| COc1cc(CNC(=O)NC(=O)C2CCN(C(C)C)CC2)cc(OC)c1OC [CBK034800] | 85.4183 |
| Cc1cccc2sc(NC(=O)CCCCCNC(N)=O)nc12 [CBK296689] | 109.407 |
| Cc1nnc(SCc2cccc(Oc3ccccc3)c2)n1N [CBK265714] | 106.959 |
| O=C(CCc1cn2ccccc2n1)NCc1cc2n(n1)CCCNC2 [CBK307157] | 82.971 |
| O=C(CN1C(=O)N2CCCN=C2c2ccccc21)N1CCCC1 [CBK284419] | 72.9901 |
| O=C(/C=C/c1cccnc1)Nc1c(F)cc(F)cc1OC1CCNCC1 [CBK050324T] | 103.387 |
| O=C(O)C1N(Cc2ccccc2)CCCN1Cc1ccccc1 [CBK265196] | 89.1806 |
| CCn1cc(CN(Cc2cccnc2)Cc2ccccc2OC)cn1 [CBK307224] | 77.5882 |
| COc1cccc(CN2CCC(C(=O)O)CC2)c1OC [CBK286548] | 48.4605 |
| O=C(Cn1ccc(=O)[nH]c1=O)NCc1cccnc1OC1CCCC1 [CBK305582] | 86.6265 |
| Cc1ccccc1C(=O)N1C[C@H]2NC(=O)c3ccccc3C(=O)[C@@]2(C)C1 [CBK285316] | 78.8276 |
| O=C(Nc1ccncc1)c1cc2cc(Cl)ccc2[nH]1 [CBK107340] | 95.1783 |
| CCCCNC(=O)NC1CCCC1 [CBK027084] | 62.9024 |

| Compound | % of control remaining |
| --- | --- |
| Cc1ncc(CN2CCOC(c3cc(C(=O)NCC(C)C)c4ccccc4n3)C2)s1 (stereo not drawn) [CBK285897] | 114.219 |
| Cc1nc2ccccc2n1C(F)(F)C(F)F [CBK022023] | 62.906 |
| Cc1nc(CNCc2c(C)nn(C)c2N(C)C)cs1 [CBK304808] | 52.6159 |
| CCCn1c(SCC(=O)NCCN2C(=O)CSC2=O)n[nH]c1=O [CBK296976] | 117.248 |
| Cc1nc(OCC(=O)O)c(C#N)c2c1COC(C)(C)C2 [CBK286810] | 71.7251 |
| CCc1cc(C(=O)Nc2nn(C)c3cccc(N4CCOCC4)c23)cs1 [CBK307419] | 59.6038 |
| N#CC(C(=O)CN1CCN(Cc2ccccc2)CC1)c1ccccc1 (stereo not drawn) [CBK269386] | 102.166 |
| CC(NC(=O)CSc1nnc(-c2ccc(Cl)cc2)n1-c1ccccc1)c1ccccc1 (stereo not drawn) [CBK264993] | 109.437 |
| Cc1cc(C)cc(NC(=O)CSc2ncnc3c2oc2ccccc23)c1 [CBK287394] | 124.82 |
| CCOC(=O)c1c(NC(=S)NC(=O)c2cccc(Cl)c2)sc2c1CCCC2 [CBK264045] | 103.173 |
| Cc1cc(=O)oc2cc(NC(=S)NNC(=O)C3CCN(Cc4ccc(F)cc4Cl)CC3)ccc12 [CBK266953] | 122.425 |
| Cc1nc2ccc(C(=O)NCC3CCCN(C(C)C)C3)cc2[nH]1 (stereo not drawn) [CBK282475] | 123.301 |
| c1ccc(COc2ccccc2-c2cc(NCCc3ccccn3)ncn2)cc1 [CBK037826] | 100.162 |
| C=CCn1cc(CN2CCc3c(nc(C)[nH]c3=O)C2)c2ccccc21 [CBK283992] | 96.0494 |
| O=C(CCCn1cccn1)N1CCOC(c2ccc(Cl)c(Cl)c2)C1 (stereo not drawn) [CBK304640] | 100.252 |
| Cc1ccc(-c2csc3ncn(Cc4ccccc4C)c(=O)c23)cc1C [CBK099921] | 87.7575 |
| O=C(NCCCNC(=O)c1ccccn1)c1ccc(Cl)cc1 [CBK269193] | 118.196 |
| CCC(NC(=O)C1(Cn2ccnc2)CC1)c1ncccc1C (stereo not drawn) [CBK307046] | 42.8989 |
| CCn1cncc1CN1CC2CCCC(O)(c3ccc(F)cc3)C2C1 (stereo not drawn) [CBK282119] | 116.996 |
| Cc1ccccc1Sc1ncccc1C(F)(F)F [CBK115231] | 88.2561 |
| CN1CCCN(c2nccnc2-c2cccc(O)c2)CC1 [CBK088820] | 68.4775 |

| Compound | % of control remaining |
| --- | --- |
| COc1ccc(NC(=S)N2CCN(C/C=C/c3ccccc3)CC2)cc1OC [CBK266891] | 102.573 |
| CCN(CC)C(=O)c1ccc2[nH]ccc2c1 [CBK149072] | 97.3909 |
| C[C@@H](Nc1cncc(-c2cccs2)n1)c1ccccc1 [CBK065711] | 63.1631 |
| CC(C)(CN(Cc1ccccc1)C(=O)/C=C/c1ccccc1)NC(=O)OC(C)(C)C [CBK003266] | 33.5279 |
| Oc1cc2cccnc2nc1-c1cccc(C(F)(F)F)c1 [CBK073704] | 74.4847 |
| CC(C)C[C@@H]1NC(=O)C2(C/C=C/C[C@@H]3COCC[C@@H]3NC1=O)CCN(C(=O)[C@H](CO)NC(=O)OCc1ccccc1)CC2 [CBK292191] | 107.682 |
| CCOc1cccc(NC(=O)/C(C#N)=C\c2cc(OC)c(O)cc2Br)c1 [CBK263189] | 118.88 |
| OC(COc1ccc(Br)cc1)CN1CCCN(c2nc3ccc(Cl)cc3s2)CC1 (stereo not drawn) [CBK074643] | 11.0645 |
| c1cncc(C2N3CCC4(CC3)c3[nH]c5ccccc5c3CCN24)c1 (stereo not drawn) [CBK284430] | 65.4979 |
| COc1ccc(C2=NN(c3ccc([N+](=O)[O-])cc3)C(=O)/C2=C/NCc2ccccn2)cc1 [CBK265276] | 119.015 |
| Cc1ccc(CNC(=O)OCc2cccnc2C)o1 [CBK200131] | 44.3351 |
| Cc1cc(Cl)ccc1NC(=S)NCCc1ccc(S(N)(=O)=O)cc1 [CBK264888] | 100.532 |
| O=S(=O)(Nc1cc(NC2CCNC2)c2occc2c1)c1ccccc1 (stereo not drawn) [CBK066943C] | 72.9808 |
| CC(C)(O)C#Cc1ccc(C(=O)N2CCN(Cc3ccccc3)CC2)cc1 [CBK263100] | 91.3255 |
| C/C(=N\N=C1\N=C(O)C(CC(=O)NCc2ccccc2)S1)c1ccco1 (stereo not drawn) [CBK263698] | 94.9993 |
| CCOc1ccsc1C(=O)N1CCN(CC)CC1 [CBK200250] | 109.876 |
| COc1cc(/C=N/c2ccc3oc(-c4cccc(I)c4)nc3c2)ccc1OC(=O)c1ccc(Cl)cc1Cl [CBK261239] | 99.0341 |
| Cc1nc2ccc(C(=O)NC(c3ccccc3)c3cccnc3)cc2[nH]1 (stereo not drawn) [CBK283259] | 88.2007 |
| Cc1cccc(OCCn2cncc2-c2cn(C)nc2C)c1C [CBK281458] | 71.6699 |
| Cc1ccc(S(=O)(=O)CCOc2nc3c(C(F)(F)F)cc(C4CC4)nc3o2)cc1 [CBK269267] | 94.6735 |
| CCOc1ccc(-c2cnc(SCC(=O)O)nc2N)cc1 [CBK269928] | 91.2789 |

| Compound | % of control remaining |
| --- | --- |
| O=C(CN1C(=O)S/C(=C\c2ccc(OCc3ccccc3)cc2)C1=O)c1ccccc1 [CBK264636] | 99.2566 |
| COc1ccc(C2(NCc3c(C)nc4sccn34)CC2)cc1 [CBK282835] | 78.9122 |
| OC(CN1CCN(Cc2ccc3c(c2)OCO3)CC1)c1ccccc1 (stereo not drawn) [CBK074759] | 101.563 |
| CN1CCC(N(C)C2CCN(Cc3ccccc3)CC2)CC1 [CBK261925] | 64.9472 |
| COc1cccc(C(NC(=O)C2COc3c(cccc3OC)C2)c2ccccc2)c1 (stereo not drawn) [CBK285736] | 105.693 |
| CCN(CC(=O)Nc1c(F)cccc1F)S(=O)(=O)c1cccc(C#N)c1 [CBK306197] | 43.1859 |
| O=C(CSc1nc(Nc2ccccc2)nc(N2CCOCC2)n1)Nc1ccc2c(c1)OCO2 [CBK268320] | 113.05 |
| CN(C)CCNc1nc(-c2cncnc2)cnc1N [CBK063661] | 103.174 |
| CC(C)(C)c1[nH]c2ncccc2c1CN1CCCC(CO)C1 (stereo not drawn) [CBK285342] | 100.407 |
| CN(CC(=O)O/N=C(\N)c1cccnc1)S(=O)(=O)c1ccccc1 [CBK267684] | 105.443 |
| CC(C)NC(=O)c1cc([C@H]2CC[C@H](CNC(=O)Cn3cccn3)CC2)nc2ccccc12 [CBK285859] | 95.4105 |
| Cc1ccc(Cl)cc1NC(=O)c1cnc2scc(C)n2c1=O [CBK287464] | 51.1265 |
| COc1cc(-c2cc(N(C)CCN(C)C)n3nccc3n2)cc(OC)c1OC [CBK037181] | 82.1529 |
| CC(NC(=O)c1cccc2ccccc12)c1ccc2ccccc2c1 (stereo not drawn) [CBK267646] | 105.871 |
| COC(=O)[C@@H]1Cc2ncn(Cc3ccc(OC)cc3)c2CN1C(=O)c1ccc(C#N)cc1 [CBK288982] | 98.3111 |
| CN(C)CCCNc1nc(-c2cccc(Cl)c2)nc2ccccc12 [CBK267284C] | 59.6639 |
| Nc1ncc(-c2ccncc2)nc1-c1cccc2c1oc1ccccc12 [CBK063889] | 185.033 |
| O=C(/C=C/c1cccnc1)Nc1ccccc1N1CCNCC1 [CBK034136T] | 79.2814 |
